# Test results taken from PubChem BioAssay AID1745845 (National Center for Advancing Translational Sciences (NCATS), 2022).
# Out of some 360,000 compounds screened, about 2,600 (0.72%) were called active. The shares of active, inactive and inconclusive entries below differ from those in the screen. Calls come from the whole dose curve; as a rule, active = well fitted inhibition curve with a large enough effect; inconclusive = small, poorly fitted or top-dose-only effect; inactive = no such curve, though single readings can be large or run the other way. Potencies of inconclusive entries are doubtful fits and often do not repeat.
# Test: Primary qHTS for Inhibitors of ATXN expression; note: nearly all actives have a fitted effect of over 55% in size
# Conditions: HEK-293 ATXN2-luciferase reporter, luminescence, 24 h; series mostly up to 57 µM
# Procedure, shortened: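 qHTS (up to 57 uM final) was run with 24 h compound exposure of reporter cells at 37 °C. Each well was multiplexed: SteadyGlo luminescence measured ATXN2-luciferase expression after a fluorogenic Gly-Phe-AFC viability readout (25 uM final).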
# Potency is the fitted concentration of half-maximal effect; tags give direction and shape of the fitted curve.
row,SMILES,Potency
1,CCN1CCN(c2ccc(S(=O)(=O)N3CCCCC3)cc2NC(=O)c2ccc([N+](=O)[O-])s2)CC1,active: 25.1 µM
2,COc1cccc(NC(=O)CN(CCc2ccccc2)S(=O)(=O)c2ccc(Cl)cc2)c1,inactive
3,CCOc1ccc(NS(=O)(=O)c2ccc3[nH]c4c(c3c2)CCCCC4)cc1,"inconclusive: 39.8 µM [inhibitor, single point]"
4,Nc1ccn([C@@H]2O[C@H](CO)[C@@H](O)C2(F)F)c(=O)n1,active: 31.6 µM
5,O[C@H]1C[C@H](c2ccc(Cl)cc2)N(CC2CCCCC2)C[C@@H]1n1cc(C2CC2)nn1,"inconclusive: 39.8 µM [inhibitor, single point]"
6,CCOc1ccc(S(=O)(=O)NCCc2c(C)[nH]c3c(Cl)cccc23)cc1C,"inconclusive: 39.8 µM [inhibitor, single point]"
7,CCCCCCCCN1C(=O)[C@H](CC(=O)NCCCCc2ccccc2)C[C@@]2(C(=O)OCC)CCCC=C12,"inconclusive: 39.8 µM [inhibitor, single point]"
8,O=C(N/N=C/c1ccc(Sc2ccccn2)o1)c1cc2ccccc2cc1O,inactive
9,Cc1onc(-c2c(Cl)cccc2Cl)c1C(N)=S,inactive
10,O=C(Nc1cnc2ccccn2c1=O)c1ccc(Cl)cc1Cl,"inconclusive: 8.91 µM [inhibitor, partial curve, poor fit]"
11,O=C(/C=C/c1ccc(Cl)c([N+](=O)[O-])c1)c1ccc(O)cc1,"inconclusive: 31.6 µM [inhibitor, partial curve, poor fit]"
12,Cc1cc(N/N=C/c2cccc(F)c2)nc(NCc2ccccc2)n1,inactive
13,CNC(=S)N(CCc1c(C)[nH]c2ccc(C)cc12)Cc1ccc(OC)c(OC)c1,"inconclusive: 39.8 µM [inhibitor, single point]"
14,CN(C)C(=S)SC(=S)N(C)C,active: 2.51 µM
15,CCCCN(C=O)c1c(CC)nc2ccc(C(=O)Nc3cc(-c4ccccc4)ccc3OC)cn12,"inconclusive: 22.4 µM [inhibitor, partial curve, poor fit]"
16,CC(=O)N1CC(=O)N=C1SCC(=O)Nc1nc(-c2ccccc2)c(-c2ccccc2)s1,inactive
17,COc1ccc(C(=O)Nc2ccc3nc(SCC(=O)N(C)c4ccccc4)sc3c2)cc1,"inconclusive: 28.2 µM [inhibitor, single point]"
18,O=C(Nc1nc2ccc(F)cc2s1)c1nc(S(=O)(=O)Cc2ccccc2F)ncc1Cl,active: 25.1 µM
19,O=C(Nc1ccn(Cc2ccc(Cl)cc2)n1)c1ccc2c(c1)OCO2,inactive
20,Cc1[nH]c(-c2ccc(F)cc2)cc1C(=O)N1CCN(c2cccc(Cl)c2)CC1,"inconclusive: 15.8 µM [inhibitor, single point]"
21,COc1cccc(S(=O)(=O)NCc2ccc(C(=O)Nc3ccc(Cl)c(Cl)c3)cc2)c1,inactive
22,CCc1nc2ccc(C(=O)NCC3CCCCC3)cn2c1N(C)Cc1ccc(OC)cc1,"inconclusive: 20 µM [inhibitor, single point]"

row,SMILES,Potency
1,CN1C(=O)/C(=C/c2ccccc2Cl)Sc2ccc(C(=O)NCc3cccnc3)cc21,"inconclusive: 39.8 µM [inhibitor, single point]"
2,CC1=C(C(=O)Nc2cc(Cl)ccc2C)C(c2sccc2C)n2ncnc2N1 (centres undefined),inactive
3,CCCC(=O)N(c1ccc2oc(=O)sc2c1)S(=O)(=O)c1cccs1,"inconclusive: 31.6 µM [inhibitor, partial curve, poor fit]"
4,C=CCn1c(SCC(=O)Nc2cc3oc4ccccc4c3cc2OC)nnc1-c1cnccn1,inactive
5,C[C@@H]1CN([C@@H](C)CO)C(=O)c2ccccc2-c2ccccc2CO[C@@H]1CN(C)S(=O)(=O)c1ccc(C(F)(F)F)cc1,"inconclusive: 28.2 µM [inhibitor, single point]"
6,Cc1ccc(Cl)cc1N1CCN(C(=O)CSc2cc(=O)n(C)c3ccccc23)CC1,"inconclusive: 39.8 µM [inhibitor, single point]"
7,C[C@H](CO)N1C[C@H](C)[C@@H](CN(C)C(=O)NC2CCCCC2)Oc2c(NC(=O)Nc3ccc(C(F)(F)F)cc3)cccc2C1=O,"inconclusive: 15.8 µM [inhibitor, partial curve, poor fit]"
8,Cc1cccc(NS(=O)(=O)c2cc(C(=O)N3CCc4ccccc4C3)ccc2Cl)c1C,"inconclusive: 25.1 µM [inhibitor, single point]"
9,Cc1ccc(NC(=O)Cn2cnc3onc(-c4ccc(F)cc4)c3c2=O)c(Cl)c1,inactive
10,CC(C)CC(NS(=O)(=O)OCC(Cl)(Cl)Cl)c1ccccc1 (centres undefined),"inconclusive: 25.1 µM [inhibitor, single point]"
11,Cc1ccc2c(c1)[C@H]1[C@H](CO2)[C@H](c2ccccc2)[C@]2(C)C(=O)Nc3ccccc3C(=O)N12,"inconclusive: 12.6 µM [inhibitor, partial curve, poor fit]"
12,C[n+]1cc2c3c(ccc2c2ccc4cc5c(cc4c21)OCO5)OCO3,active: 1.58 µM
13,O=C(CN1C(=O)C2(SCC(=O)N2c2cccc(Cl)c2)c2ccccc21)NCc1ccccc1 (centres undefined),inactive
14,COc1ccc(Cc2c(-c3ccccc3)nc3ccc(Br)cn23)c(C)c1,inactive
15,Oc1[nH]c2ccc(Br)cc2c1N=NC(=S)NCC1CCCO1 (centres undefined),inactive
16,COc1ccccc1NC(=O)Nc1cc(NC(=O)Nc2ccccc2OC)c(C)nc1C,"inconclusive: 35.5 µM [inhibitor, partial curve, poor fit]"
17,COc1ccccc1-c1noc(CCCC(=O)Nc2cccc(C(F)(F)F)c2)n1,"inconclusive: 35.5 µM [inhibitor, partial curve]"
18,O=C(Nc1ccc(Oc2ccc3ccccc3c2)cc1)c1ccco1,"inconclusive: 11.2 µM [inhibitor, partial curve, poor fit]"
19,C[C@@H](NC(=O)c1ncnc(N)c1Cl)c1ncc(C(=O)Nc2cc(C(F)(F)F)c(Cl)cn2)s1,"inconclusive: 24.3 µM [inhibitor, partial curve]"
20,Cc1cc(C)cc(NC(=O)c2ccc([N+](=O)[O-])o2)c1,"inconclusive: 31.6 µM [inhibitor, partial curve, poor fit]"
21,O=C(Nc1nnc(-c2ccco2)o1)c1ccc([N+](=O)[O-])s1,"inconclusive: 16.8 µM [inhibitor, partial curve, poor fit]"
22,CCO[C@@H]1OC(C(=O)NCc2nc3ccccc3[nH]2)=C[C@H](c2ccc(C(F)(F)F)cc2)[C@H]1CCCO,"inconclusive: 39.8 µM [inhibitor, single point]"

row,SMILES,Potency
1,CN(C(=O)COC(=O)/C=C/c1ccc2ccccc2n1)C1CCS(=O)(=O)C1 (centres undefined),"inconclusive: 37.7 µM [inhibitor, single point]"
2,Cc1nc(-c2ccc(Cl)cc2)sc1C(=O)NN,"inconclusive: 39.8 µM [inhibitor, single point]"
3,C=CCN(c1ccccc1OC)S(=O)(=O)c1cccc(C(=O)NCC(c2ccc(OC)cc2)N2CCCC2)c1 (centres undefined),"inconclusive: 14.1 µM [inhibitor, partial curve, poor fit]"
4,CN(C)CCNc1ccc2nnn3c4ccc(O)cc4c(=O)c1c23,"inconclusive: 17.8 µM [inhibitor, partial curve, poor fit]"
5,Cn1c(=O)c([N+](=O)[O-])c(NC2CCS(=O)(=O)C2)c2ccccc21 (centres undefined),"inconclusive: 0.947 µM [inhibitor, partial curve, poor fit]"
6,CC(C)c1ccccc1-n1c(SCc2cc(=O)oc3ccc4ccccc4c23)nnc1-c1cccnc1,"inconclusive: 31.6 µM [inhibitor, partial curve, poor fit]"
7,C=C1C(=C/C=C2\CCC[C@]3(C)[C@@H]([C@H](C)/C=C/[C@@H](O)C4CC4)CC[C@@H]23)C[C@@H](O)C[C@@H]1O,"inconclusive: 31.6 µM [inhibitor, single point]"
8,O=C(NNC(=O)c1ccccc1OCc1ccc(F)cc1)c1ccccc1O,active: 15.8 µM
9,Cc1ccc2occ(-c3cc(-c4ccc(F)cc4)nc4c3COc3ccc(F)cc3-4)c(=O)c2c1,inactive
10,COC(=O)c1ccc(NC(=O)CCc2c(C)nc3c(c(C)nn3C(C)(C)C)c2C)cc1,inactive
11,CC(C)C[C@H](NC(=O)c1[nH]cnc1C(=O)N[C@@H](Cc1ccccc1)C(=O)OC(C)(C)C)C(=O)OC(C)(C)C,"inconclusive: 35.5 µM [inhibitor, single point]"
12,O=[N+]([O-])/C=C/c1cn(Cc2ccc(F)cc2)c2ccccc12,"inconclusive: 39.8 µM [inhibitor, single point]"
13,Cc1ccc(OCCCCN2CCC(C)CC2)c(Br)c1,inactive
14,CCCCN(CC)C(=O)c1nn(-c2ccc(OC)cc2)c(=O)c2c1c1ccccc1n2C,"inconclusive: 28.2 µM [inhibitor, partial curve, poor fit]"
15,O=C(c1ccc(Nc2nccc(-c3cc4ccccc4s3)n2)cc1)N1CCC(N2CCCC2)CC1,active: 19.3 µM
16,Cc1ccc(NC2=C(N3CCCCC3)C(=O)c3ccccc3C2=O)cc1,"inconclusive: 39.8 µM [inhibitor, single point]"
17,COc1ccc(SCC(=O)Nc2ccc(N3CCN(C)CC3)c(F)c2)cc1,inactive
18,COc1ccc(/C=C(\NC(=O)c2ccccc2)C(=O)N2CCN(C)CC2)cc1OC,inactive
19,CCn1c(=O)c(C(=O)NCc2ccccc2)c(O)c2ccccc21,inactive
20,CCOC(=O)CN1C(c2ccc(O)cc2)Nc2ccc(Br)cc2C1c1ccccc1 (centres undefined),"inconclusive: 31.6 µM [inhibitor, single point]"
